According to the antibiotic and cytotoxicity screens of Wong et al. (2023):
The other results are listed elsewhere or left out.

Columns and labels:
[1] = system: HSkMC (human skeletal muscle cells); assay: cytotoxicity call (relative viability < 0.9); details: 10 µM
[2] = system: HepG2; assay: cytotoxicity call (relative viability < 0.9); details: 10 µM
[3] = system: S. aureus RN4220; assay: growth inhibition call (relative growth <= 0.2); details: 50 µM

Structure (SMILES)	cytotoxicity call [1]	cytotoxicity call [2]	growth inhibition call [3]
Cc1ccc(S(=O)(=O)Nc2ccc3c(c2)C(=O)N([C@@H](C)CO)C[C@H](C)[C@H](CN(C)C(=O)Cc2ccccc2)OCCCC[C@H](C)O3)cc1	inactive	inactive	inactive
C[C@H](CO)N1C[C@H](C)[C@H](CN(C)C(=O)Nc2cccc3ccccc23)Oc2c(NS(=O)(=O)c3ccc(F)cc3)cccc2C1=O	active	inactive	inactive
O=C(C[C@@H]1CC[C@@H]2[C@H](COC[C@H](O)CN2C(=O)c2cnccn2)O1)N1CCN(c2ccccc2)CC1	inactive	inactive	inactive
C[C@@H]1CN([C@H](C)CO)C(=O)Cc2cc(NC(=O)c3ccncc3)ccc2O[C@@H]1CN(C)Cc1ccncc1	inactive	inactive	inactive
CCCNC(=O)[C@@]1(Sc2ccc(C)cc2)CC(=O)N(Cc2ccccc2Cl)[C@@H]1c1ccc(CO)cc1I	inactive	inactive	inactive
CC1=CC2C(CC1=O)C2(C)C (stereo not drawn)	inactive	inactive	inactive
C[C@@H]1CN([C@@H](C)CO)C(=O)c2cc(NC(=O)CCC(F)(F)F)ccc2O[C@@H](C)CCCCO[C@H]1CN(C)Cc1ccc(C(=O)O)cc1	inactive	inactive	inactive
C[C@@H]1CCCCO[C@H](CN(C)C(=O)Nc2ccc(C(F)(F)F)cc2)[C@H](C)CN([C@H](C)CO)C(=O)c2cc(NS(=O)(=O)c3ccc(Cl)cc3)ccc2O1	inactive	active	inactive
NS(=O)(=O)c1cc2c(cc1Cl)N=CNS2(=O)=O	inactive	inactive	inactive
CC(C)(C)[S@](=O)N1Cc2cc(C(=O)N3CCc4ccccc4C3)nc(-c3cccc(-c4cccnc4)c3)c2[C@@H]1CCO	inactive	inactive	inactive
C[C@H]1CN([C@@H](C)CO)C(=O)c2cc(NS(C)(=O)=O)ccc2O[C@H]1CN(C)S(=O)(=O)c1ccccc1	inactive	inactive	inactive
CCCNC(=O)N(C)c1nncnc1C(=O)NC	inactive	inactive	inactive
C[C@@H]1CCCCO[C@H](CN(C)Cc2ccc(Cl)c(Cl)c2)[C@@H](C)CN([C@@H](C)CO)C(=O)c2cc(NS(=O)(=O)c3ccccc3)ccc2O1	active	active	inactive
C[C@@H]1CCCCO[C@@H](CN(C)S(C)(=O)=O)[C@H](C)CN([C@H](C)CO)C(=O)c2cc(NS(C)(=O)=O)ccc2O1	inactive	inactive	inactive
COc1cccc(NC(=O)N2C[C@H](O)COC[C@H]3O[C@@H](CC(=O)NCc4ccccc4F)CC[C@@H]32)c1	inactive	inactive	inactive
Cc1noc(C)c1NC(=O)Nc1ccc2c(c1)C(=O)N([C@H](C)CO)C[C@H](C)[C@@H](CN(C)C(=O)NC(C)C)O2	inactive	inactive	inactive
CN(C)CC(=O)N[C@@H]1C=C[C@@H](CC(=O)NCCN2CCCCC2)O[C@H]1CO	inactive	inactive	inactive
C[C@@H]1CN([C@@H](C)CO)C(=O)c2cccc(NC(=O)CCCCCC(=O)Nc3ccccc3N)c2O[C@@H]1CN(C)Cc1ccc(Oc2ccccc2)cc1	inactive	active	inactive
C[C@H](CO)N1C[C@H](C)[C@H](CN(C)Cc2ccc(Cl)c(Cl)c2)Oc2ccc(NC(=O)CCC(F)(F)F)cc2C1=O	inactive	inactive	inactive
COCC(=O)Nc1ccc2c(c1)C(=O)N(C)C[C@@H](OC)[C@H](C)CN(Cc1ccccc1OC)[C@@H](C)CO2	inactive	inactive	inactive
C[C@@H]1CN([C@H](C)CO)C(=O)Cc2cc(NS(=O)(=O)c3ccc(Cl)cc3)ccc2O[C@H]1CN(C)S(=O)(=O)c1cn(C)cn1	inactive	inactive	inactive
C[C@@H]1CN([C@H](C)CO)S(=O)(=O)c2ccc(-c3ccncc3)cc2O[C@@H]1CN(C)C(=O)c1cccc(F)c1	inactive	inactive	inactive
C[C@H]1CCc2c(sc(/N=C/C=C/c3ccccc3)c2C#N)C1	inactive	inactive	inactive
COc1cc(/C=C/c2cc(/C=C/c3ccc(O)c(OC)c3)n(CCc3ccccc3)c(=S)n2)ccc1O	inactive	inactive	inactive
CC(C)CC(=O)Nc1cncc(-c2ccc3[nH]nc(-c4nc5cncc(-c6cccc(F)c6)c5[nH]4)c3c2)c1	active	active	inactive
C[C@@H]1CN([C@H](C)CO)C(=O)c2cc(NC(=O)Cn3cnnn3)ccc2O[C@@H]1CN(C)C(=O)Nc1ccc2c(c1)OCO2	inactive	inactive	inactive
